These results are taken from article PMC7819943, “Rice protein-binding microarrays: a tool to detect cis-acting elements near promoter regions in rice”.

This is one part of the list.

For this experiment, the target named is T1, OsWOX13 (Oryza sativa, UniProt Q5QMM3 1-267).
T1 sequence: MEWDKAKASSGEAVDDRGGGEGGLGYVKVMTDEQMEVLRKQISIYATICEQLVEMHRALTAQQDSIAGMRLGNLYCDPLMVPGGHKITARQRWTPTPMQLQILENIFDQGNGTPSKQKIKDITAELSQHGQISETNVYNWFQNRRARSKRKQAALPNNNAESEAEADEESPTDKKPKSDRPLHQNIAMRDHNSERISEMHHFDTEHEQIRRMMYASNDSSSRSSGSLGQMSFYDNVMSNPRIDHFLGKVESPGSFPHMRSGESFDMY
The experiment can be described thus: protein-binding microarray (RPBM); PBS, 2% BSA, 51.3 ng/ul salmon testes DNA, 50 uM zinc acetate, 200 nM TF, 25 C, 1 h; high values mean tight binding. Conditions: protein: recombinant; tags: N-terminal polyhistidine and DsRed monomer fusion (pET32a); label: CyDye5-dUTP incorporated in the synthesized complementary strand; 3' TTTTT single-stranded linker to array surface; dsDNA, one strand shown. The method, boiled down: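 Ni–NTA purification followed expression in E. coli BL21-CodonPlus of transcription factors fused N-terminally to a polyhistidine tag and DsRed. At 200 nM in PBS with 2% BSA, salmon testes DNA and 50 µM zinc acetate, the protein was incubated for 1 h at 25 °C with a custom Agilent array that had been primer-extended with Cy5-dUTP and blocked with 2% BSA. After washing, the array was read on an Axon 4000B scanner. The binding signal is per-feature fluorescence intensity in arbitrary units.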
Turning to “GATGATCATAGAAAGGGAGATTGACAAGTGGGCCCATGGGCGGAGTCACCTAGTGCAG”, the binding signal is 18200 fluorescence intensity (a.u.).

For the sequence “TGAATTGATGGAGTATGTATTTAAAAGCCTCGCTGGCGATCGGAGTCACCTAGTGCAG”, the binding signal is 20700 fluorescence intensity (a.u.).

With “GTGATGATTTATTTTCGAACTATCTAGCTATTTATCTAGACGGAGTCACCTAGTGCAG”, the binding signal is 9370 fluorescence intensity (a.u.).

Consider “AACAGTGCTTAATTGTTGCCATAACCCTGAGGACCCTGGCCGGAGTCACCTAGTGCAG”, for which the binding signal is 4530 fluorescence intensity (a.u.).

For “CTTAATGAATACTATCATGCTGCAGTTTTCCCTTTTGTTTCGGAGTCACCTAGTGCAG”, the binding signal was 8010 fluorescence intensity (a.u.).

On to “TCCAATAATTTTCTTTTGCAAAGCTTTGTCACTGGCTCAACGGAGTCACCTAGTGCAG”, for which the binding signal is 3510 fluorescence intensity (a.u.).

On to “AAAGACAATTATTTTCAAAGTAATTTCCTACTAATTATCGCGGAGTCACCTAGTGCAG”, for which the binding signal is 5110 fluorescence intensity (a.u.).

As for “TGCACGTGATTGTCAAGTTTATATACCAGTCTACTCGTTTCGGAGTCACCTAGTGCAG”, the binding signal was 27900 fluorescence intensity (a.u.).

As to “TATAAATTGAAAATCGTCTTCCATTATAGCTTTGGATCGACGGAGTCACCTAGTGCAG”, the binding signal is 19200 fluorescence intensity (a.u.).

As for “GGCTAGATGATTTGGATTCGAAATCTCACCCCTTCTAATTCGGAGTCACCTAGTGCAG”, the binding signal was 5760 fluorescence intensity (a.u.).

As to “TAGTTAATATGTAATAATACATTTATTTATTTATATTAGACGGAGTCACCTAGTGCAG”, the binding signal is 3940 fluorescence intensity (a.u.).

As to “AAGATTGGGAAGATACGCAAAACGAGGTGAGCTATTAGTGCGGAGTCACCTAGTGCAG”, the binding signal was 4430 fluorescence intensity (a.u.).

With “CGACGAAATTATTATTACATATCTGGGTCTGGGTGCCAGCCGGAGTCACCTAGTGCAG”, the binding signal is 6440 fluorescence intensity (a.u.).

On to “CATGTAGAATTGAATTAAATTAATTACTGTGAGGACAAATCGGAGTCACCTAGTGCAG”, for which the binding signal was 14700 fluorescence intensity (a.u.).

In the case of “ACTTGCAATCACTATTGTGACTGTCAGTAGTCGGTAGCAGCGGAGTCACCTAGTGCAG”, the binding signal was 15100 fluorescence intensity (a.u.).

As to “TGACAATTACAGTATAAACTGATTTCATTATATTTAACACCGGAGTCACCTAGTGCAG”, the binding signal is 11200 fluorescence intensity (a.u.).

In the case of “AGAATGGAAATTAACACTCACATTACCACATGGAATTAAGCGGAGTCACCTAGTGCAG”, the binding signal was 3190 fluorescence intensity (a.u.).

For the sequence “AATTCCGGGTAATCAGCAAAATGATGACTTTGACGACCAACGGAGTCACCTAGTGCAG”, the binding signal is 3480 fluorescence intensity (a.u.).

Regarding “GTTGCAGATTGAGAGCCAAAGACATTATCTTGATTCTATCCGGAGTCACCTAGTGCAG”, the binding signal was 13100 fluorescence intensity (a.u.).

Consider “CCGTGCGCTCGCCTGATTGAGTTCACTGCCACCCGTTGGTCGGAGTCACCTAGTGCAG”, for which the binding signal was 3650 fluorescence intensity (a.u.).

“CTTTGATAAATTGGAGACTTGAAAATGTATTTTGAAAGTTCGGAGTCACCTAGTGCAG”: the binding signal was 26200 fluorescence intensity (a.u.).

In the case of “GCTTGTGATTTGTGCTGTACACGGTTACTGTAGCCAAGTTCGGAGTCACCTAGTGCAG”, the binding signal is 22700 fluorescence intensity (a.u.).

Take “CATCTGTAATGTCATGATTTATTTATAGAATATATTAAATCGGAGTCACCTAGTGCAG”: the binding signal is 3760 fluorescence intensity (a.u.).

As to “GTTTGATTATCTGAACTCCAGCAGAAATTGCATTGGTTCTCGGAGTCACCTAGTGCAG”, the binding signal was 26800 fluorescence intensity (a.u.).

As to “ATAATTATTCTGTTAATTAATCAATTATTATCTGGGAATCCGGAGTCACCTAGTGCAG”, the binding signal was 63600 fluorescence intensity (a.u.).

Turning to “GCCGTGTGATTAGCCGTTTACGTACCGTTCGGATCTGGTCCGGAGTCACCTAGTGCAG”, the binding signal was 40200 fluorescence intensity (a.u.).

Consider “ATTAATTGGTCAATCATGCATGCAAGCATCTGCTTATGGACGGAGTCACCTAGTGCAG”, for which the binding signal was 44000 fluorescence intensity (a.u.).

Consider “AATGAATTTAGATAGATATATATATCTAGATTCATTAGCACGGAGTCACCTAGTGCAG”, for which the binding signal was 7940 fluorescence intensity (a.u.).

As for “TCAGATTGGAAAAGCTTAACTGTTTAAGTTTGGTGATTTCCGGAGTCACCTAGTGCAG”, the binding signal is 8040 fluorescence intensity (a.u.).

For the sequence “ATATTAATTGATGTCCTGCTAGATATATAGATTAAATCTCCGGAGTCACCTAGTGCAG”, the binding signal is 43900 fluorescence intensity (a.u.).

For “CTTATATTATGGATAATTGTAAAAGTAAACTATAGAGCTGCGGAGTCACCTAGTGCAG”, the binding signal is 7010 fluorescence intensity (a.u.).

“CTCCTTTAATTACCATGTATCTCTGTTTTGTACCTCTATCCGGAGTCACCTAGTGCAG”: the binding signal was 12900 fluorescence intensity (a.u.).

Consider “ATTTCCATCTTAATCTCACAATTAATTCTCTCGTGTAAACCGGAGTCACCTAGTGCAG”, for which the binding signal was 3280 fluorescence intensity (a.u.).

Take “AAAATTGATACGTACAGATTAAATCAGTACAATCCATACACGGAGTCACCTAGTGCAG”: the binding signal is 16400 fluorescence intensity (a.u.).

For the sequence “CTAGACCAATCATCCCATCATCATCTCACAATCATCAGAACGGAGTCACCTAGTGCAG”, the binding signal is 13500 fluorescence intensity (a.u.).

As to “ATGGAGACTTATACGTGATTTATCTCTTCTATTCAATTGTCGGAGTCACCTAGTGCAG”, the binding signal was 4430 fluorescence intensity (a.u.).

Regarding “ATTGGTAGAATTAATCACTAATCAGAGAAACTAATCACTACGGAGTCACCTAGTGCAG”, the binding signal is 3600 fluorescence intensity (a.u.).

With “TTTCGTCTTGCTAATTACAGTGATTAATCCGTTATTACATCGGAGTCACCTAGTGCAG”, the binding signal is 12500 fluorescence intensity (a.u.).

For the sequence “GGTAATGGGTAATGTGTATTAATAGAGGATTAGAGGGTATCGGAGTCACCTAGTGCAG”, the binding signal is 9910 fluorescence intensity (a.u.).

As to “TAGTACATAATTTGTTTGGACTTTTGACTCCAGGAAAGTTCGGAGTCACCTAGTGCAG”, the binding signal is 10100 fluorescence intensity (a.u.).

For “ACCATCAGACAAGCATATAATTGATTGCTCTGATCAAGCGCGGAGTCACCTAGTGCAG”, the binding signal was 32600 fluorescence intensity (a.u.).

Turning to “AGTTAGATTGGTTCATGATTGGCTGTAACTTTTAGGACGCCGGAGTCACCTAGTGCAG”, the binding signal was 51700 fluorescence intensity (a.u.).

Regarding “TACACCTTATCAATCTACCGGTATAATTCGATCCCACATCCGGAGTCACCTAGTGCAG”, the binding signal is 7010 fluorescence intensity (a.u.).

With “AGGTTGATTAACTGTTTCATGAATTTGGTATGTTTGCAGTCGGAGTCACCTAGTGCAG”, the binding signal is 53300 fluorescence intensity (a.u.).

“TCAGAAGATTGATCTTCCCGTGTGGTTACAGGCCAGCTTTCGGAGTCACCTAGTGCAG”: the binding signal was 14000 fluorescence intensity (a.u.).

Regarding “CCAAGAAGTGCTAATTGAGGATATTTCGGGTGAGGTCCTCCGGAGTCACCTAGTGCAG”, the binding signal was 7800 fluorescence intensity (a.u.).

For “GCGGATTAGCATTCTCGCAAATTTGTAACTTCGATCTATCCGGAGTCACCTAGTGCAG”, the binding signal is 9840 fluorescence intensity (a.u.).

On to “AAGTTTGATCAAATTTATAGGAAATTTAGCAACATCTAAACGGAGTCACCTAGTGCAG”, for which the binding signal was 3910 fluorescence intensity (a.u.).

Take “AGGATTAGCCATAATTGCTACAATAACCCGTATGTGCTAACGGAGTCACCTAGTGCAG”: the binding signal was 24600 fluorescence intensity (a.u.).

On to “GTTAAATTTTGCTTCCAAACCAAACAGCCTAACAAGCCGTCGGAGTCACCTAGTGCAG”, for which the binding signal was 6500 fluorescence intensity (a.u.).

In the case of “GGACTACGTGACAGATTTTGCAATCCGGTGCCCAATGAAGCGGAGTCACCTAGTGCAG”, the binding signal was 4200 fluorescence intensity (a.u.).

Turning to “TCTAAATTTAGCAATCACTTATCCTATACCTCCGCTCGTACGGAGTCACCTAGTGCAG”, the binding signal is 36900 fluorescence intensity (a.u.).

On to “GAGGCAATCATCTGCATGATGGACATGTAATAATCGGATGCGGAGTCACCTAGTGCAG”, for which the binding signal is 20900 fluorescence intensity (a.u.).

Take “GCTGCTTTTGCCAAAATTAATTTGCAACACTTGTGACAAACGGAGTCACCTAGTGCAG”: the binding signal was 4670 fluorescence intensity (a.u.).
